# Reference: patent publication US12473298B2, “Amide compounds, preparation method therefor, and use thereof in the medical field” (Shanghai Synergy Pharmaceutical Sciences Co., Ltd., priority 2019, dated 2025)
# Where two headings read alike, the source gives them in different places.
# Legend:
# Mutant type EZH2(Y641F) = Mutant type EZH2(Y641F) (Homo sapiens (Human), UniProt Q15910, Y641F); assay: AlphaLISA, mutant type PRC2 complex EZH2(Y641F); assay type: biochemical; conditions: read-out: Mutant type EZH2(Y641F) IC50 Nanomoles per Liter
# Mutant type EZH2(Y641F), sequence (Q15910 whole entry Y641F): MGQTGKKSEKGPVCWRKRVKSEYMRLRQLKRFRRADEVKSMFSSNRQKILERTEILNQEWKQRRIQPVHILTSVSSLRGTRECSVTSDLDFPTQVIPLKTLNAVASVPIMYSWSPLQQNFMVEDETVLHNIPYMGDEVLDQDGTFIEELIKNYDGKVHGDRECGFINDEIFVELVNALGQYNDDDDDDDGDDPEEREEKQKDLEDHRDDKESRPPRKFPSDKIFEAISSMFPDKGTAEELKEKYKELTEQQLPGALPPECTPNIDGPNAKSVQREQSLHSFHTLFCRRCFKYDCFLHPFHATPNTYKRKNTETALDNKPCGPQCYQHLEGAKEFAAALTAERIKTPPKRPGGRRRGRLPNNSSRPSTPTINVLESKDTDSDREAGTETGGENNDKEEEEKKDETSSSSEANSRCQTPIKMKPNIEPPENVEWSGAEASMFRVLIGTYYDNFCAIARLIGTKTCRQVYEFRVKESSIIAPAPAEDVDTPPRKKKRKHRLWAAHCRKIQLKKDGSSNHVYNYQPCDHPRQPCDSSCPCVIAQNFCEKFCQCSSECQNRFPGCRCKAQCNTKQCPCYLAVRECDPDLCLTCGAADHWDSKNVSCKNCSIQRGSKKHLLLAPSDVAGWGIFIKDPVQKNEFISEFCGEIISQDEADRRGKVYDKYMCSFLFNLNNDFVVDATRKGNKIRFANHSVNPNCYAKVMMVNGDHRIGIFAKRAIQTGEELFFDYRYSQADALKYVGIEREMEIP
# Mutant type EZH2(Y641F), sequence (O75530 whole entry partner): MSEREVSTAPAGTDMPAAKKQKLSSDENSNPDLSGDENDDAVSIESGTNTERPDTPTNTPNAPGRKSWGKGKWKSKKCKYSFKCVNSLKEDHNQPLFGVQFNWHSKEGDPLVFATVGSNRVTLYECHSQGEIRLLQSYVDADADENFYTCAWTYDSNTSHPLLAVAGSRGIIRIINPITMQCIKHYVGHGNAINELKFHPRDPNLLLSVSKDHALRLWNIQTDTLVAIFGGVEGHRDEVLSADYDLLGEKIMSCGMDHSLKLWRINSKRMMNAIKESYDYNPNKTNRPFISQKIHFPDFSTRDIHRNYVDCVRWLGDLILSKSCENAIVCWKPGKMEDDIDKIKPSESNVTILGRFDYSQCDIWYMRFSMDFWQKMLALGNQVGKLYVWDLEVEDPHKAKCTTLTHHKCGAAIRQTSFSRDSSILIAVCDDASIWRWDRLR
# Mutant type EZH2(Y641F), sequence (Q15022 whole entry partner): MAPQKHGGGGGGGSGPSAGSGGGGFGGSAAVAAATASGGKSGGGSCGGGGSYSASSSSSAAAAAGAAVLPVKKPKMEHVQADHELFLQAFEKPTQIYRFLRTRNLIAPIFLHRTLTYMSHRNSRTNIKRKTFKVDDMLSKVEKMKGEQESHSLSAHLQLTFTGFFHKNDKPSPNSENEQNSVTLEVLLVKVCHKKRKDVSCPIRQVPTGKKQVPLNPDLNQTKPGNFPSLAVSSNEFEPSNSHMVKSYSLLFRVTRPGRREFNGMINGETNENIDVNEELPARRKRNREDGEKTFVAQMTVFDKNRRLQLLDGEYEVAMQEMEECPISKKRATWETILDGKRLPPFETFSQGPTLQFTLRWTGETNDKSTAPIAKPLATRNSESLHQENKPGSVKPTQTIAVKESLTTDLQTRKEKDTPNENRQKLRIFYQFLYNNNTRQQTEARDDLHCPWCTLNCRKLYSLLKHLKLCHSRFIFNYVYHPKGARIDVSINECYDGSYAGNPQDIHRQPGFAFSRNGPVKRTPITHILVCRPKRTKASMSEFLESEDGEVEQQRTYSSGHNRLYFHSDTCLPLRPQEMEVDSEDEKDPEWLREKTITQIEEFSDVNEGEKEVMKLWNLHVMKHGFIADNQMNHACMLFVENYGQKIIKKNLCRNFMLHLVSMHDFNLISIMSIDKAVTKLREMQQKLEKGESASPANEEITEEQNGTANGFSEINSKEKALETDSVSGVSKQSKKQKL
# Mutant type EZH2(Y641F), sequence (Q09028 whole entry partner): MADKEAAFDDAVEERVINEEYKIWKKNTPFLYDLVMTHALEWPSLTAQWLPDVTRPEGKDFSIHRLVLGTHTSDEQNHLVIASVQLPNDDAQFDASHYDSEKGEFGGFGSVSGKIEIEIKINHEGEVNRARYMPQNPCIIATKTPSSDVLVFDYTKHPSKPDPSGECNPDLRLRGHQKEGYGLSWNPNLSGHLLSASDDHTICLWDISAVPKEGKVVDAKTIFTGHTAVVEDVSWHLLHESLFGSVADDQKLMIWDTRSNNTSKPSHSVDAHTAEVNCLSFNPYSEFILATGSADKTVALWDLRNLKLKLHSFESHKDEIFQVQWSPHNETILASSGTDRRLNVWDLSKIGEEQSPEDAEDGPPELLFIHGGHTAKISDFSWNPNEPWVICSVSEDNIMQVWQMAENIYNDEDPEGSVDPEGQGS
# Mutant type EZH2(Y641F), sequence (Q6ZN18 whole entry partner): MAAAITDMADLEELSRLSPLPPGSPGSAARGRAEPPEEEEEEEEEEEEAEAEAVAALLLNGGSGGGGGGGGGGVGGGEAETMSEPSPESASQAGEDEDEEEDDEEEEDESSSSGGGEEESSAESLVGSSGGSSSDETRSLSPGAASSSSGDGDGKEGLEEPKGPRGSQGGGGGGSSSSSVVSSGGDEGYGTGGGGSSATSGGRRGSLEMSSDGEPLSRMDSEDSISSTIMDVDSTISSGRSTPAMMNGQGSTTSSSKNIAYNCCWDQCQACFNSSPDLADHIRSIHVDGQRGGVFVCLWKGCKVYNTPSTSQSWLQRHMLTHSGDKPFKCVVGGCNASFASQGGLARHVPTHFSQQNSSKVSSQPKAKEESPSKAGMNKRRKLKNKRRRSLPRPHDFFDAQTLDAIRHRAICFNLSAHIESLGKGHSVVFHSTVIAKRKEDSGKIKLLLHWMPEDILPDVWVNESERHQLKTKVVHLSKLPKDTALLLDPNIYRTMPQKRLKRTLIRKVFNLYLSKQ
# Mutant type EZH2(A677G) = Mutant type EZH2(A677G) (Homo sapiens (Human), UniProt Q15910, A677G); assay: AlphaLISA, mutant type PRC2 complex EZH2(A677G); assay type: biochemical; conditions: read-out: Mutant type EZH2(A677G) IC59 Nanomoles per Liter
# Mutant type EZH2(A677G), sequence (Q15910 whole entry A677G): as the sequence (Q15910 whole entry Y641F) above, with F641Y, A677G counted along it
# Mutant type EZH2(A677G), sequence (O75530 whole entry partner): as the sequence (O75530 whole entry partner) above
# Mutant type EZH2(A677G), sequence (Q15022 whole entry partner): as the sequence (Q15022 whole entry partner) above
# Mutant type EZH2(A677G), sequence (Q09028 whole entry partner): as the sequence (Q09028 whole entry partner) above
# Mutant type EZH2(A677G), sequence (Q6ZN18 whole entry partner): as the sequence (Q6ZN18 whole entry partner) above
# Mutant type EZH2(Y641N) = Mutant type EZH2(Y641N) (Homo sapiens (Human), UniProt Q15910, Y641N); assay: AlphaLISA, mutant type PRC2 complex EZH2(Y641N); assay type: biochemical; conditions: read-out: Mutant type EZH2(Y641N) IC50 Nanomoles per Liter
# Mutant type EZH2(Y641N), sequence (Q15910 whole entry Y641N): as the sequence (Q15910 whole entry Y641F) above, with F641N counted along it
# Mutant type EZH2(Y641N), sequence (O75530 whole entry partner): as the sequence (O75530 whole entry partner) above
# Mutant type EZH2(Y641N), sequence (Q15022 whole entry partner): as the sequence (Q15022 whole entry partner) above
# Mutant type EZH2(Y641N), sequence (Q09028 whole entry partner): as the sequence (Q09028 whole entry partner) above
# Mutant type EZH2(Y641N), sequence (Q6ZN18 whole entry partner): as the sequence (Q6ZN18 whole entry partner) above
# [1] = test system: human diffuse large cell lymphoma B lymphocytes (Pfeiffer cell); assay: Pfeiffer cell proliferation, Calcein AM staining; assay type: cell-based; conditions: data of 14th day, read-out: Pfeiffer Proliferation IC50 Nanomoles per Liter
# wild-type EZH2 = wild-type EZH2 (Homo sapiens (Human), UniProt Q15910); assay: radiometric assay, activity to wild-type EZH2 of PRC2
# wild-type EZH2, sequence (Q15910 whole entry): as the sequence (Q15910 whole entry Y641F) above, with F641Y counted along it
# wild-type EZH2, sequence (O75530 whole entry partner): as the sequence (O75530 whole entry partner) above
# wild-type EZH2, sequence (Q15022 whole entry partner): as the sequence (Q15022 whole entry partner) above
# [2] = Pharmacokinetic experiment in rats; assay type: in vivo, SD rats; conditions: for AUC / Cmax / bioavailability: male, SD, rat, plasma, rats; for AUC: read-out: Area Curve (AUC, ng/mL · h); for half-life: male, SD, rat, plasma; rats, Intravenous-Dose 4 mg/kg; read-out: Half life T1/2, h) (converted); for Cmax: read-out: Blood Drug level (Cmax, ng/mL); for bioavailability: oral 20 mg/kg vs intravenous 4 mg/kg, read-out: Bioavailability (P %)
# Protocol: A certain amount of compound was weighted and dissolved in 0.1% Tween under vortex and ultrasound, and 0.5% carboxymethyl cellulose sodium (CMC-NA) solution was added to form a uniform solution.
# [3] = test system: human diffuse large B-cell lymphoma cells (WSU-DLCL2 cell); assay: Pharmacodynamic experiment in combination with other drugs, WSU-DLCL2 transplanted tumor model in mice; assay type: in vivo, mice (CB17/SCID); conditions: for inhibitory effect on tumor growth: 125 mg/kg intragastrically twice a day for 21 days; for inhibited tumor growth: intragastrically, twice a day for 21 days
# [4] = test system: human diffuse large B-cell lymphoma cells (Karpas 422 cell); assay: Karpas 422 cell proliferation, Calcein AM staining; assay type: cell-based; conditions: KARPAS-422, data of 14th day, read-out: Karpas422 Proliferation IC50 Nanomoles per Liter
# [5] = test system: human diffuse large cell lymphoma B lymphocytes (Pfeiffer cell); assay: Pharmacodynamic experiment, Pfeiffer transplanted tumor model in mice; assay type: in vivo, mice (beige SCID); conditions: 50 mg/kg, intraperitoneally, once a day for 21 days
# [6] = combined with four positive control drugs (CHOP)
# [7] = read-out: Wild-type EZH2 IC50 Nanomoles per Liter
Structure (SMILES),IC50 (Mutant type EZH2(Y641F)),IC50 (Mutant type EZH2(A677G)),IC50 (Mutant type EZH2(Y641N)),"IC50 ([1]; Homo sapiens, Pfeiffer)",IC50 (wild-type EZH2; [7]),further results
"CCN(c1cc(-c2ccc3c(c2)NC(=O)C32CCOCC2)cc(C(=O)NCc2c(OC)cc(C)[nH]c2=O)c1C)C1CCN(C)CC1 [Example 1, 3-(ethyl(1-methylpiperidin-4-yl)amino)-N-((4-methoxy-6-methyl-2-oxo-1,2-dihydropyridin-3-yl)methyl)-2-methyl-5-(2-oxo-2′,3′,5′,6′-tetrahydrospiro[dihydroindole-3,4′-pyran]-6-yl)benzamide]",0.9 nM,0.54 nM,0.43 nM,2.95 nM,–,IC50 (wild-type EZH2): 1 nM
"CCN(c1cc(-c2ccc3c(c2)N(C)C(=O)C32CCOCC2)c(Cl)c(C(=O)NCc2c(C)cc(C)[nH]c2=O)c1C)C1CCOCC1 [Example 10, 2-chloro-N-((4,6-dimethyl-2-oxo-1,2-dihydropyridin-3-yl)methyl)-5-(ethyl(tetrahydro-2H-pyran-4-yl)amino)-6-methyl-3-(1-methyl-2-oxo-2′,3′,5′,6′-tetrahydrospiro[dihydroindole-3,4′-pyran]-6-yl)benzamide]",–,–,–,–,–,"AUC ([2]; Intravenous-Dose 4 mg/kg): 898 ng·h/mL; half-life [2]: 1.31 h; AUC ([2]; Oral-Dose 20 mg/kg): 1560 ng·h/mL; Cmax ([2]; Oral-Dose 20 mg/kg): 515 ng/mL; bioavailability [2]: 34.8%; inhibitory effect on tumor growth [3, 6]: exceeded 98%; tumor disappearance ([3]; 125 mg/kg, combined with four positive control drugs (CHOP)): tumors in several mouse disappeared; inhibited tumor growth ([3]; 125 mg/kg): 83%"
"CCN(c1cc(-c2ccc3c(c2)C=CC32CCN(CC(F)(F)F)CC2)cc(C(=O)NCc2c(OC)cc(C)[nH]c2=O)c1C)C1CCOCC1 [Example 35, 3-(ethyl(tetrahydro-2H-pyran-4-yl)amino)-N-((4-methoxy-6-methyl-2-oxo-1,2-dihydropyridin-3-yl)methyl)-2-methyl-5-(1′-(2,2,2-trifluoroethyl)spiro[indene-1,4′-piperidine]-5-yl)benzamide]",0.78 nM,0.24 nM,0.1 nM,2.21 nM,0.9 nM,–
"CCN(c1cc(-c2ccc3c(c2)N(C(C)C)C(=O)C32CCOCC2)c(Cl)c(C(=O)NCc2c(OC)cc(C)[nH]c2=O)c1C)C1CCOCC1 [Example 52, 2-chloro-5-(ethyl(tetrahydro-2H-pyran-4-yl)amino)-3-(1-isopropyl-2-oxo-2′,3′,5′,6′-tetrahydrospiro[dihydroindole-3-1,4′-pyran]-6-yl)-N-((4-methoxy-6-methyl-2-oxo-1,2-dihydropyridin-3-yl)methyl)-6-methylbenzamide]",0.64 nM,0.44 nM,0.23 nM,1.38 nM,0.97 nM,–
CCCN1CC2(CCOCC2)c2ccc(-c3cc(N(CC)C4CCOCC4)c(C)c(C(=O)NCc4c(C)cc(C)[nH]c4=O)c3Cl)cc21 [Example 57],–,–,–,1.47 nM,–,"IC50 [4]: 2.43 nM; AUC ([2]; Intravenous-Dose 4 mg/kg): 979 ng·h/mL; half-life [2]: 1.15 h; AUC ([2]; Oral-Dose 20 mg/kg): 1290 ng·h/mL; Cmax ([2]; Oral-Dose 20 mg/kg): 456 ng/mL; bioavailability [2]: 26.3%; inhibitory effect on tumor growth [3, 6]: exceeded 99%; inhibited tumor growth ([3]; 125 mg/kg): 81%"
"CCN(c1cc(-c2ccc3c(c2)NC(=O)C32CCN(CC3CC3)CC2)cc(C(=O)NCc2c(C)cc(C)[nH]c2=O)c1C)C1CCOCC1 [Example 69, 5-(1′-(cyclopropylmethyl)-2-oxospiro[dihydroindole-3,4′-piperidine]-6-yl)-N-((4,6-dimethyl-2-oxo-1,2-dihydropyridin-3-yl)methyl)-3-(ethyl(tetrahydro-2H-pyran-4-yl)amino)-2-methylbenzamide]",0.38 nM,0.21 nM,0.13 nM,1.35 nM,0.58 nM,–
"CCN(c1cc(-c2ccc3c(c2)N(C(C)=O)CC32CCOCC2)cc(C(=O)NCc2c(C)cc(C)[nH]c2=O)c1C)C1CCOCC1 [Example 74, 5-(1-acetyl-2′,3′,5′,6′-tetrahydrospiro[dihydroindole-3,4′-pyran]-6-yl)-N-((4,6-dimethyl-2-oxo-1,2-dihydropyridin-3-yl)methyl)-3-(ethyl(tetrahydro-2H-pyran-4-yl)amino)-2-methylbenzamide]",0.63 nM,0.26 nM,0.14 nM,2.78 nM,0.83 nM,–
"CC[C@H](C)n1cc(C)c2c(C(=O)NCc3c(C)cc(C)[nH]c3=O)cc(-c3ccc(N4CCNCC4)nc3)cc21 [GSK126, reference compound]",–,–,–,–,–,IC50 [1]: 38.8 nM; inhibited tumor growth [5]: 68%
